Test results as given in the supplement of paper PMC11417369.
Some of the results follow.

Test system: PfHDP1 homeodomain (GST-tagged)
Assay: gcPBM binding intensity (ln(normalized median fluorescence intensity)); higher = stronger DNA binding
Procedure, shortened: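 GST-tagged P. falciparum DNA-binding domains, expressed in E. coli (about 25 μg on average), were applied for 1 h to an Agilent 4 × 180k array of primer-extended double-stranded 36-bp intergenic genomic probes plus negative controls. The binding buffer was 1× PBS with 1% milk, 0.2 mg/ml BSA, 0.5% salmon testes DNA and 0.03% Triton X-100. Bound protein was detected with Alexa488 anti-GST antibody and scanned at 488 nm. Binding intensity is the highest Masliner-normalised natural-log median intensity across replicate spots of either probe orientation.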

Point of comparison: “AATATATATTCATGTGTACACACAAAAAAAAATAAA [CACACA_site8690]”, “gcPBM binding intensity (ln)” value 7.36. Against it:
- TTTTTATAAATAATAAGGCGTATGAAAATAAAATAA [TGCATGCA_negctrl_site421] — lower, 6.48
- TCAAAATATCCAAAAGAATAAAGAAAAAAAAAAAGA [CACACA_negctrl_site1377] — lower, 6.1
- ATATAATGAAGTGAATGTACATATAAAATGTAAAAA [XGTACX_site8052] — lower, 6.37
- TCTTTTTTGAAGCATTTTGTTTTTTAATAAGTAAAA [TGCATGCA_negctrl_site247] — lower, 6.21
- TATATATATATTTAATGTACATGTTTATTTTATCAT [XGTACX_site499] — higher, 8.26
- AATAAAATAAAAAAAAATAAAAAAAAAATAAAAAAT [XGTACX_negctrl_site245] — lower, 6.54
- TATTTTTCTTTTTAAGTGCATGGTTGTATAAAATTT [GTGCAC_site9480] — higher, 7.69
- TTTATAAAGGGAAAGGTGCAAAAGGTGAAAGTTTTA — higher, 10.1
- TTATTAACGGAACTCTGTACTTAAAAAATTTTAGAA [XGTACX_site8787] — lower, 6.25
- TATATAAGAATATATACACACATATCTGTATTTATA [CACACA_site5231] — lower, 6.3
- AAAAAAACAGAAAACACACAAATTATCTTATAATTA [CACACA_site6282] — lower, 6.32
- ATTGTTTCATTAAAATGTACATAAATTGTGTATAAT [XGTACX_site5341] — lower, 7.03
- TATATCAAAAACGAGACATGCATGCCGTTCATTTTG [TGCATGCA_site211] — lower, 6.05
- GAGTTTATATTTTAAGCATGCATATGTTATTATTAT [TGCATGCA_site1049] — lower, 6.64
- CCTATAATTAGGGGTAGTACACAAAAAAAAAAAAAA [XGTACX_site6396] — lower, 6.29
- AATTCCTTATACAATTGTACATAAAAAGAATAAAAA [XGTACX_site1343] — lower, 6.47
- TTAAAAAAGAATTGTGCACACACAAAAAATGTTCAT [CACACA_site1102] — higher, 10.6
- TGGTGTTTTTTTTAATGTACTTATAAAATAATACAT [XGTACX_site6574] — lower, 6.53
- TTTTTTTTACATGAACGTACATAATATATTTTATAA [XGTACX_site5249] — lower, 6.59
- ATGTAAAAATAAAGATGTACATGTATATATATATAT [XGTACX_site5193] — higher, 9.03
- CTGAGGAAGCTAATTACACACATGCATATTTTTTTT [CACACA_site2177] — lower, 6.8
- ATTATCTTCAAGTATGTACACACTATATATAATAAA [CACACA_site2441] — lower, 6.58
- ATCAAACAAAAAATAAAAAAATGCGACATGTGTACA [TGCATGCA_negctrl_site164] — lower, 7.34
- CAAGGACAATTTACAAACATAATATATGTATATATA [TGCATGCA_negctrl_site5] — lower, 5.98
- TTGAATACATATATATGTACATATTCTATGGTTAGA [XGTACX_site4088] — lower, 6.45
- TTAATATTTTTAATTTGTACATATAATTAAATCTCT [XGTACX_site1736] — lower, 6.35
- GAAAATTATGTATATTGTACAAATATTATATTAAAT [XGTACX_site2467] — lower, 6.66
- TATAAAATTTAAATTATACACACTTAAGTAACATCA [CACACA_site531] — lower, 6.86
- TACATGTATAATATAATACACACTATATAATATACA [CACACA_site2239] — lower, 6.67
- TACATACATACATACATACACACATATATATATATA [CACACA_site1996] — higher, 9.22
- AAATTATAATTAGGAACACACATATATATATATATA [CACACA_site3098] — higher, 9.39
- ATAACATGAACATATGTTACACAAACATACATACAT [XGTACX_negctrl_site365] — lower, 6.77
- AAAAAATATTTTAGTGGTACATTTGTAGCTCTCAAA [XGTACX_site4859] — lower, 6.27
- AATCAAATATTTAAATGTACTCAAGAAGGCTTAATC [XGTACX_site6907] — lower, 6.08
- GAAAAAAAAAAAAAAAAACACACGGTACATTCAAAG [CACACA_site303] — lower, 6.07
- AAAAATATAATATAATGTACACAAAAAAAAAAAATC [XGTACX_site1427] — lower, 6.64
- TATGAAGACACAAATACACACACTCAAAAAAAAAAA [CACACA_site2660] — lower, 6.5
- AAAAAGAAGATGCAAACATGCACACAGAAAAAAAAA [TGCATGCA_site375] — higher, 8.5
- CTATTATAAAAATGATGTACACTTATATATACATAT [XGTACX_site6087] — lower, 6.69
- TTTTTTTTTTGAATATGTACTTAAAAAAATTTTTTT [XGTACX_site3851] — lower, 6.13
- TAATTTTTTTTTTTTTTTTTTTTTTTTTTTTTTTTA [CACACA_negctrl_site1218] — lower, 5.81
- TTTTCATTCCACAACGCACACCCATTTAAAAAAAAA [CACACA_site1377] — higher, 7.45
- AAAAAAAAAAAAATTACACACATACAGATAATAATA [CACACA_site5244] — lower, 6.49
- TATGCAAGGAACCACACACACACACGGAAATGTATA [CACACA_site6490] — lower, 6.77
- AATTATGGGGAAAAGACACACATATATATATATATA [CACACA_site2589] — higher, 9.35
- ATACGACAAATATAAAGTACAAGCTTGGTTTTTATA [XGTACX_site8103] — lower, 6.4
- ATTCTATAGAAACACACACACATGCATGCACCTATA [CACACA_site107] — higher, 8.67
- TTATATATATATGTATGTACTTATAACTTTTATTAG [XGTACX_site3190] — lower, 6.14
- TTTATTTATAGAATTACACACATATATACACAAATG [CACACA_site7338] — lower, 6.96
- TTCTTTTTTTTCAGTTGTACTTATAAGAAAGAAAAA [XGTACX_site4028] — lower, 6.37
- TTTATTTTTAAAGGCACACACATTTTTATTTTTAAA [CACACA_site2021] — lower, 6.44
- AATATAAATATAGGAAATGTAGTTAAAAGGTGTATG [CACACA_negctrl_site1233] — lower, 6.85
- ATATATATAACAAAAGTGCATTAAGGGGATGCTATA — higher, 8.66
- TTATTATAAATAGGTAGTACATTTTGAACAAATATT [XGTACX_site8866] — lower, 6.14
- TTAATATAAATATGATTTTTGATTCCTATACTATTT [CACACA_negctrl_site752] — lower, 5.95
